# Several values for one entry are separate records, joined by “and”; a condition that tells them apart may be missing. Equal entries are not always repeated. Screen size: about 200,000 compounds; about 4,500 (2.2%) were called active. This list was built around the results that the source calls inconclusive (neither active nor inactive); the mix of calls is not that of the screen. Calls follow the shape of the dose curve; as a rule, active = well fitted inhibition curve with a large enough effect; inconclusive = small, poorly fitted or top-dose-only effect, or effect the other way; inactive = flat fitted curve, though single readings scatter. Potencies beside an inconclusive call are fits to weak or partial responses and may not hold up.
# Molecular target: Cruzipain (Trypanosoma cruzi) (UniProt P25779)
# Sequence of UniProt P25779 (P25779 whole entry, looked up): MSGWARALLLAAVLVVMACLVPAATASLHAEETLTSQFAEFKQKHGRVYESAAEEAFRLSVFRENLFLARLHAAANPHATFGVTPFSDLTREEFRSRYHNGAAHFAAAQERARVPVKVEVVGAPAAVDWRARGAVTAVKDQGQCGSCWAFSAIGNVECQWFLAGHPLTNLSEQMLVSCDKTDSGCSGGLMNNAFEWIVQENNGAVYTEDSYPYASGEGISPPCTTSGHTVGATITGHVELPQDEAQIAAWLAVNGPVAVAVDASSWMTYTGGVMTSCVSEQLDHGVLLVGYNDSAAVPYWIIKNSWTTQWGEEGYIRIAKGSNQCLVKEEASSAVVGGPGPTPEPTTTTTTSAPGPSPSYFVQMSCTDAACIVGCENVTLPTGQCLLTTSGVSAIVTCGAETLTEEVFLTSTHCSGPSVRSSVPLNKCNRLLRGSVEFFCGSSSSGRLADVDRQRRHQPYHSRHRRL
# Test: qHTS Assay for Promiscuous and Specific Inhibitors of Cruzain (without detergent); also: nearly all actives have a fitted effect of over 40% in size;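 as to max response, negative = inhibition: plate controls were enzyme without inhibitor for no effect and buffer without enzyme for full effect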
# Conditions: purified cruzain, Z-FR-AMC fluorescence, no detergent
# Method in brief: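 Purified cruzain at 1.5 nM, pre-incubated 15 min with compound at room temperature in 100 mM sodium acetate pH 5.5, 5 mM DTT, 0.00005% Triton X-100. Reaction started with 2 uM Z-FR-AMC; AMC fluorescence increase over 60 s gives rate.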
# Potency is read from the fitted curve at half-maximal effect; tags tell the direction and shape of the fitted curve.
SMILES,Potency,"max response, negative = inhibition"
Cc1cc(C)cc(C(=O)NC(=S)Nc2ccc(-c3cc4ccccc4oc3=O)cc2)c1,active: 10 µM,
CCN1C(=O)c2ccccc2Sc2ccc(NC(C)=O)cc21,,inactive: 6.7%
Cc1cc(N2CCCC(C(=O)Nc3ccc4c(c3)CCC4)C2)n2ncnc2n1 (stereo not drawn),"inconclusive: 31.6 µM [activator, single point]",
COC/C=C/C1=CC2=CC(=O)C(C)(O)C(=O)C2=CO1 (stereo not drawn),"inconclusive: 31.6 µM [activator, single point]",
C/C=C/C=O,,inactive: 7.16%
CC(C)C(=O)N1CCN(c2nc(-c3ccccc3)c3c(c2C#N)CCCC3)CC1,"inconclusive: 31.6 µM [activator, single point]",
O=c1cc(Nc2ccc3c(c2)OCCO3)[nH]c(=O)n1Cc1ccc(F)cc1,"inconclusive: 25.1 µM [inhibitor, single point]",
O=C(CSc1nnc2c3ccccc3c3ccccc3c2n1)Nc1ccccc1,active: 3.98 µM,
COc1ccccc1-c1noc(-c2ccc(N3CCC(C)CC3)c([N+](=O)[O-])c2)n1,,inactive: -7.92%
CC(C)Cn1c(SCC(=O)NCc2ccc(Cl)cc2)nnc1-c1cccc(S(=O)(=O)N2CCOCC2)c1,,inconclusive: 197% [activator]
CCOC(=O)C1CCCN(C(=O)c2cc3ncc(Br)cn3n2)C1 (stereo not drawn),"inconclusive: 31.6 µM [inhibitor, single point]",
O=C(COC(=O)c1ccc2c(c1)C(=O)N(c1cccc3ncccc13)C2=O)c1ccc(Cl)cc1,"inconclusive: 39.8 µM [inhibitor, single point]",
O=C(c1ccc(C(F)(F)F)cc1)N1CCC(=O)N(C(COCc2ccccc2)Cc2ccccc2)CC1 (stereo not drawn),"inconclusive: 25.1 µM [activator, single point]",
O=C(N/N=C/c1cn(Cc2ccccc2)c2ccccc12)c1cccnc1,"inconclusive: 39.8 µM [activator, single point]",
CCOc1cccc2cc(C(=O)N3CCc4ccccc43)c(=O)oc12,active: 15.8 µM,
O=C1c2[nH]nc(-c3ccccc3O)c2C(c2ccc(Cl)cc2)N1Cc1ccco1 (stereo not drawn),"inconclusive: 31.6 µM [inhibitor, single point]",
CCc1ccc(C(=O)c2cn(CC(=O)NCCc3ccc(OC)c(OC)c3)c3nc(C)ccc3c2=O)cc1,"inconclusive: 39.8 µM [activator, single point]",
N#C/C(=C\c1c(N(Cc2ccccc2)Cc2ccccc2)nc2ccccn2c1=O)C(N)=O,"inconclusive: 39.8 µM [activator, single point]",
COc1cc(OC)cc(-c2nc(-c3ccccc3OC)no2)c1,"inconclusive: 15.8 µM [activator, partial curve]",
COc1ccc(OC)c(S(=O)(=O)N2CCC(c3ccncc3)CC2)c1,,inactive: 2.31%
COc1cccc(NC(=O)CSC2=Nc3ccccc3C3=NC(CC(=O)NCCc4ccccc4)C(=O)N23)c1 (stereo not drawn),"inconclusive: 39.8 µM [activator, single point]",
Cc1cc(/C=N/NC(=O)Cn2c3ccccc3c(=O)c3ccccc32)c(C)n1-c1ccc(Cl)cc1,active: 3.16 µM,
Cc1ccc(N(CC(O)COCc2ccco2)S(=O)(=O)c2ccc(C)cc2)cc1 (stereo not drawn),"inconclusive: 31.6 µM [activator, partial curve]",

SMILES,Potency,"max response, negative = inhibition"
[O-][Br+2]([O-])O,,inactive: -18.9% and inactive: -25.4%
Fc1cccc(Nc2nc3ccccc3n3nnnc23)c1,"inconclusive: 12.6 µM [inhibitor, partial curve]",
COc1cc(-c2nc3nc[nH]n3c2Nc2ccc(C(C)C)cc2)ccc1O,"inconclusive: 39.8 µM [activator, single point]",
Cc1cccc(-n2ncc3c(Nc4ccc(Oc5ccc(Cl)cc5)cc4)ncnc32)c1,active: 25.1 µM,
COc1ccc(-c2cc(C(=O)N(C)Cc3ccccc3)no2)cc1OC,"inconclusive: 31.6 µM [activator, single point]",
CC(C)Sc1nc(NCc2ccco2)c2c3c(sc2n1)COC(C)(C)C3,"inconclusive: 39.8 µM [activator, single point]",
CCc1nn(-c2ccccc2)c2nc(-c3cccc(OC)c3)c3cc(OC)c(OC)cc3c12,,inactive: 3.88%
CCOc1cccc(-c2cc(C(=O)N/N=C/c3ccc(OC)c(CN4CCOCC4)c3)c3ccccc3n2)c1,"inconclusive: 25.1 µM [activator, single point]",
COc1ccc(/C=C/C(=O)Nc2cc(C(F)(F)F)ccc2Cl)cc1OC,"inconclusive: 39.8 µM [activator, single point]",
COc1ccc(NC(=S)NCCc2c[nH]c3ccccc23)cc1,,inactive: 5.55%
COc1cc(NC(=O)CSc2nnc(-c3ccncc3)n2C2CCCCC2)ccc1NC(=O)c1ccco1,"inconclusive: 15.8 µM [activator, partial curve]",
O=C(Nc1ccn(Cc2ccccc2F)n1)c1ccc(COc2ccc(Cl)cc2Cl)o1,"inconclusive: 39.8 µM [inhibitor, single point]",
Cc1ccc(-c2nc3ccccc3s2)cc1NC(=S)NC(=O)c1cccc2ccccc12,active: 6.31 µM,
Cc1ccc(C)c(N2CCN(c3cnn(-c4nc5ccccc5s4)c(=O)c3Cl)CC2)c1,"inconclusive: 39.8 µM [inhibitor, single point]",
COc1ccc(Cl)cc1NC(=O)Cn1c(=O)n(Cc2ccco2)c(=O)c2cccnc21,,inactive: -7.08%
CCn1cc(C(=O)N2CCN(c3cc(C)ccc3C)CC2)c(=O)c2cc(S(=O)(=O)N3CCOCC3)ccc21,"inconclusive: 39.8 µM [activator, single point]",
CCOc1ccc(NC(=O)C(NS(=O)(=O)c2cccc3nsnc23)c2ccccc2)cc1 (stereo not drawn),,inactive: -7.76%
N#Cc1nc(N2CCOCC2)nc(N2CCOCC2)n1,active: 1.26 µM,
Cn1c(=O)c2c(nc(CN3CCN(CCO)CC3)n2Cc2cccc3ccccc23)n(C)c1=O,,inactive: -1.83%
O=C(NC1CCCCC1)c1cc2c(Cl)nc3ccccc3c2s1,,inactive: 0.851%
CCc1ccc(CCC(=O)Nc2sc3c(c2C#N)CCCC3)o1,active: 25.1 µM,
Cc1ccc2nc(/C(C#N)=C\c3ccc(Oc4ccc([N+](=O)[O-])cn4)cc3)[nH]c2c1,active: 10 µM,
Cc1ccc(C(=N)c2ccccc2Cc2cccc3ccccc23)c2ccccc12,"inconclusive: 3.98 µM [inhibitor, single point]",

SMILES,Potency,"max response, negative = inhibition"
COC(=O)c1ccc(CSc2nnc(NCc3ccccc3)s2)o1,,inactive: -6.85%
Cc1ccc(NC(=O)C2CCCN2C(=O)NC2CCCCC2)c(C)c1 (stereo not drawn),,inactive: 13.7%
Cc1ccc(SCc2nc(-c3ccc(C(=O)NCc4ccc(Cl)cc4)cc3)oc2C)cc1,,inactive: 6.72%
Cn1nc(-c2ccc(N3CCOCC3)c(NS(=O)(=O)c3ccccc3)c2)c2ccccc2c1=O,"inconclusive: 31.6 µM [activator, single point]",
COc1cc(C(=O)Nc2nc3nc(-c4ccccc4)cc(=O)n3[nH]2)cc(OC)c1OC,,inactive: -5.81%
FC(F)Sc1ccc(NC(=S)NC2CCC(NC(=S)Nc3ccc(SC(F)F)cc3)CC2)cc1 (stereo not drawn),active: 15.8 µM,
O=C(NC(=S)Nc1cc(-c2nc3ccccc3[nH]2)ccc1Cl)c1ccc2c(c1)OCO2,active: 31.6 µM,
Cc1cc(C)c(CSc2nnc(C)n3c2cc2occc23)c(C)c1,"inconclusive: 39.8 µM [activator, single point]",
COc1ccccc1CN=Cc1[nH]c2ccc(Br)c(Cl)c2c1O,"inconclusive: 39.8 µM [inhibitor, single point]",
CC1CCN(S(=O)(=O)c2ccc3c(c2)oc(=O)n3CC(=O)NCc2ccc(F)cc2)CC1,"inconclusive: 25.1 µM [activator, single point]",
COc1cc2cc(CN(Cc3nnnn3Cc3ccco3)C3CCCCC3)c(=O)[nH]c2cc1OC,active: 7.94 µM,
CN(C)Cc1ccc(-c2cc3onc(-c4ccccc4)c3c(=O)n2C)cc1,,inactive: 1.76%
Cc1cc(C)c(NC(=O)C[C@H](CC(=O)O)c2cccc3ccccc23)c(C(=O)N2CCC3(CCCC3)CC2)c1,"inconclusive: 5.01 µM [activator, full curve]",
Cc1c(Cl)ccc2sc(NC(=O)c3ccc(S(=O)(=O)N4CCCc5ccccc54)cc3)nc12,"inconclusive: 6.31 µM [inhibitor, single point]",
COc1ccc(CC(=O)Nc2cccc(-c3csc(C)n3)c2)cc1,,inactive: -16.3%
Cc1ccc(CCNC(=O)c2cc3sccc3n2Cc2ccc(C)cc2)cc1,"inconclusive: 39.8 µM [inhibitor, single point]",
Cc1c(Cl)cccc1-c1ccc(CNc2ccc3[nH]c(=O)[nH]c3c2)o1,"inconclusive: 31.6 µM [inhibitor, single point]",
O=C(Nc1ccc(Br)c2cccnc12)c1cccc2ccccc12,,inactive: 5.97%
c1ccc(-c2nc(-c3ccco3)n3ccccc23)cc1,"inconclusive: 5.01 µM [inhibitor, partial curve, poor fit]",
Cc1cc(C(=O)CN2C(=O)NC(C)(c3cccc(Br)c3)C2=O)c(C)n1Cc1ccco1 (stereo not drawn),active: 31.6 µM,
CCCC(C(=O)NC1CCCC1)N(C(=O)Cn1nnc(-c2ccc(C)o2)n1)c1ccccc1OC (stereo not drawn),"inconclusive: 39.8 µM [activator, single point]",
Clc1cccc(N2CCN(c3nc4ccccc4n4cnnc34)CC2)c1,,inactive: 5.81%
